Data from the antibiotic and cytotoxicity screens of Wong et al. (2023).
The list shows a part of the results.

What follows are compounds tested on S. aureus RN4220 (assay: growth inhibition call (relative growth <= 0.2)). Conditions: 50 µM.

Growth inhibition call, inactive:
Cc1ccc(S(=O)(=O)Nc2cccc3c2O[C@@H](CN(C)S(=O)(=O)c2cccs2)[C@@H](C)CN([C@H](C)CO)C3=O)cc1, C[C@@H]1CN([C@H](C)CO)C(=O)c2cccc(NC(=O)Nc3cccc4ccccc34)c2O[C@H]1CN(C)S(=O)(=O)c1cccs1, Cc1noc(C)c1NC(=O)Nc1cccc2c1O[C@H](CN(C)S(C)(=O)=O)[C@H](C)CN([C@H](C)CO)C2=O, C[C@@H]1CN([C@H](C)CO)C(=O)c2cc(NC(=O)C3CCCCC3)ccc2O[C@@H]1CN(C)Cc1ccc(C(F)(F)F)cc1, C[C@@H]1CCCCO[C@H](CN(C)Cc2ccc(Cl)c(Cl)c2)[C@H](C)CN([C@@H](C)CO)C(=O)c2cc(NC(=O)Cc3ccccc3)ccc2O1, Cc1noc(C)c1NC(=O)N(C)C[C@H]1Oc2ccc(NS(=O)(=O)c3cn(C)cn3)cc2C(=O)N([C@H](C)CO)C[C@@H]1C, C[C@@H]1CN([C@H](C)CO)C(=O)c2cc(NC(=O)c3ccncc3)ccc2O[C@H]1CN(C)Cc1ccncc1, COc1ccc(CN(C)C[C@H]2OCCCC[C@@H](C)Oc3ccc(NC(=O)Nc4ccc(F)cc4)cc3C(=O)N([C@@H](C)CO)C[C@@H]2C)cc1, COCC#Cc1cnc2c(c1)C(=O)N([C@@H](C)CO)C[C@H](C)[C@@H](CN(C)C(=O)CN1CCOCC1)O2, C#CCN1C(=O)C[C@H](O)C1=O, C[C@@H]1CN([C@@H](C)CO)C(=O)c2cc(NC(=O)CCCN(C)C)ccc2O[C@H]1CN(C)Cc1ccc(C(=O)O)cc1, C[C@H](CO)N1C[C@H](C)[C@@H](CN(C)C(=O)Nc2ccccc2)Oc2ccc(NS(=O)(=O)c3cn(C)cn3)cc2CC1=O, O=C1NC(=O)[C@H]2CC[C@H]2N1, C[C@@H](N)CCP(=O)(O)O, C(=C\c1ccncc1)/c1ccncc1, C[C@H](CO)N1C[C@H](C)[C@@H](CN(C)C(=O)Cc2ccccn2)Oc2cc(C#Cc3ccccc3)ccc2S1(=O)=O, COc1ccc(CN(C)C[C@H]2OCCCC[C@H](C)Oc3ccc(NC(=O)CCC(F)(F)F)cc3C(=O)N([C@H](C)CO)C[C@H]2C)cc1, C[C@@H]1CN([C@H](C)CO)C(=O)Cc2cc(NS(C)(=O)=O)ccc2O[C@@H]1CN(C)S(=O)(=O)c1ccc(F)cc1, C[C@H]1CN([C@@H](C)CO)C(=O)Cc2cc(NC(=O)Nc3ccc(F)cc3)ccc2O[C@H]1CN(C)S(=O)(=O)c1ccc(Oc2ccccc2)cc1, C[C@H](CO)N1C[C@H](C)[C@H](CN(C)S(=O)(=O)c2cccs2)Oc2ccc(NC(=O)Cc3ccccc3)cc2CC1=O, CCn1nc(C)cc1C(=O)NN, COc1ccc(CN(C)C[C@@H]2Oc3ccc(NS(=O)(=O)c4cn(C)cn4)cc3CC(=O)N([C@@H](C)CO)C[C@H]2C)cc1, NCc1cccc(-c2ccccc2)c1, Cc1ccc(S(=O)(=O)Nc2ccc3c(c2)C(=O)N([C@@H](C)CO)C[C@H](C)[C@@H](CN(C)C(=O)C2CCCCC2)OCCCC[C@@H](C)O3)cc1, N[C@@H]1CONC1=O, NCC[C@H]1CC[C@@H](NC(=O)NC2CCCCC2)[C@@H](CO)O1, CCCC(=O)Nc1ccc2c(c1)C(=O)N(C)C[C@H](OC)[C@H](C)CN(S(=O)(=O)c1cn(C)cn1)[C@@H](C)CO2, COCC(=O)N(C)C[C@H]1Oc2cc(-c3ccc(OC)cc3)ccc2S(=O)(=O)N([C@@H](C)CO)C[C@H]1C, O=C(C[C@@H]1CC[C@H](NS(=O)(=O)c2ccc(F)cc2)[C@@H](CO)O1)N1CCC(Cc2ccccc2)CC1, C[C@H](CO)N1C[C@H](C)[C@@H](CN(C)Cc2ccncc2)Oc2c(NC(=O)c3cnccn3)cccc2C1=O, C[C@H](CO)N1C[C@H](C)[C@@H](CN(C)C(=O)NC2CCCCC2)OCCCC[C@H](C)Oc2ccc(NS(=O)(=O)c3ccc(Cl)cc3)cc2C1=O, Cc1ccc2ncccc2c1, C[C@H](CO)N1C[C@H](C)[C@@H](CN(C)Cc2ccc3c(c2)OCO3)Oc2ccc(NC(=O)Cn3cnnn3)cc2C1=O, CN(C)c1ccc([C@@H](CN)N2CCc3ccccc3C2)cc1, C[C@@H]1CCCCO[C@H](CN(C)S(=O)(=O)c2ccc(F)cc2)[C@H](C)CN([C@@H](C)CO)C(=O)c2cc(NC(=O)c3ccccc3)ccc2O1, CC(=O)NCCCC[C@@H]1NC(=O)[C@H]2C[C@@H](C(=O)O)[C@@H](c3ccc(O)cc3)N2C1=O, O=C(C[C@H]1CC[C@@H]2[C@H](COC[C@@H](O)CN2C(=O)c2cccnc2)O1)NCc1ccc(-c2ccccc2)cc1, COc1ccccc1CNC(=O)C[C@@H]1C[C@H]2c3cc(NC(=O)c4ccc5c(c4)OCO5)ccc3O[C@H]2[C@@H](CO)O1, C[C@@H]1CN([C@H](C)CO)C(=O)c2cccc(NC(=O)CCCCCC(=O)Nc3ccccc3N)c2O[C@@H]1CN(C)C(=O)Nc1ccccc1
